The text below walks through data of PubChem BioAssay AID488969 (Vanderbilt High Throughput Screening Facility, 2010).

The full ranking holds about 110,000 compounds; the median of “z-score” is about -0.1, and the highest 2% start at about 2. The list shows a part of the results.

In the assay the target is Metabotropic glutamate receptor 8 (Rattus norvegicus) (UniProt P70579). Description: rat mGluR8 modulators via GIRK flux, primary screen, cell-based, thallium flux, HTS (AID 488969). The note with it: HEK293 rat mGluR8, GIRK (G protein-gated inwardly rectifying potassium channel) thallium flux, FluoZin2; at 10 µM; stronger effect = higher value; submaximal glutamate (EC20) added with thallium.
Sequence of UniProt P70579 (P70579 whole entry, looked up): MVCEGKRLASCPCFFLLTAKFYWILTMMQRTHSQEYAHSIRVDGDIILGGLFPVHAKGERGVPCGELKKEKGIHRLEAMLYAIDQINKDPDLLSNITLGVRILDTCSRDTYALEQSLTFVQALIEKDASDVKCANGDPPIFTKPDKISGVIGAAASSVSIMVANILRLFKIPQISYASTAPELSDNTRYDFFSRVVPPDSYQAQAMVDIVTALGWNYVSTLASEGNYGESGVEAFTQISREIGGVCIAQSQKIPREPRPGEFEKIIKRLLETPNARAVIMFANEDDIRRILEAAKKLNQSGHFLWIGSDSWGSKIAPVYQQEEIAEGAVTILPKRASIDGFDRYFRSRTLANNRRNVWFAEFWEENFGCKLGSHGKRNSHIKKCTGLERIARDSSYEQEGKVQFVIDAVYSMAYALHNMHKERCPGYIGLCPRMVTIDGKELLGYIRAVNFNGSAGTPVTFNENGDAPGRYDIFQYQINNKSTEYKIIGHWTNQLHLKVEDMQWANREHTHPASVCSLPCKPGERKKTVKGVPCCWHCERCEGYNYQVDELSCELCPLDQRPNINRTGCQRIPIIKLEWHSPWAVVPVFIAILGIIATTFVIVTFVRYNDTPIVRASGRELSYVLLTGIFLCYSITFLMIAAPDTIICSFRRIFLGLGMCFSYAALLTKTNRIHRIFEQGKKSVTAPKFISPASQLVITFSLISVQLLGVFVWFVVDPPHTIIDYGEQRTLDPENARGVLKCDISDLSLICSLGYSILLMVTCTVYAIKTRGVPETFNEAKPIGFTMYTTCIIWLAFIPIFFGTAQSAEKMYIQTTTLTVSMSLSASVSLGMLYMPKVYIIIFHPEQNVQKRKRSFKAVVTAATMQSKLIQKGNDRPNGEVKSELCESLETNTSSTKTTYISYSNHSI
With `Cc1nc2nc(Cc3ccccc3)nn2c(C)c1Cl`, the z-score is -0.327.

Compound `C=CCn1c(SCC(N)=O)nnc1-c1cc2c(s1)CCC(CC)C2` (centres undefined) displayed a z-score of -0.502.

`O=C(CSc1nnc(-c2ccncc2)n1Cc1ccccc1)NC1CCCc2ccccc21` (centres undefined) gave a z-score of -0.296.

`COC(=O)Cn1c(=NC(=O)c2ccc(Cl)s2)sc2cc(F)ccc21` registered a z-score of 0.00472.

In turn, `O=C(CSc1nnc(-c2cccs2)n1-c1ccccc1)N1CCCC1` gave a z-score of 0.344.

As for `Cc1ccc(C(=O)C2C(=O)c3ccccc3C2=O)cc1`, the z-score is -0.39.

Consider `CN(Cc1ccccc1)c1ncnc2ccc(Br)cc12`, for which the z-score is -0.191.

In turn, `CCn1c(CSc2nc3ccccc3[nH]2)n[nH]c1=S` registered a z-score of -0.483.

Consider `CCCOc1ccc(C2C(C(=O)c3ccc(C)o3)=C(O)C(=O)N2Cc2cccnc2)cc1` (centres undefined), for which the z-score was -0.361.

The compound `CN1CCN(CCNC(=O)c2cc3c(=O)n(C)c4ccccc4c3n2C)CC1` had a z-score of 0.327.

In turn, `Cc1nn(Cc2ccc(F)cc2)c(C)c1NC(=O)c1noc2c1CCc1ccccc1-2` displayed a z-score of 1.11.

Regarding `O=C(CC1(O)C(=O)Nc2ccccc21)c1ccccc1O` (centres undefined), the z-score turned out to be 0.356.

With `COc1ccc(C(=O)c2oc3ccc(Br)cc3c2NC(C)=O)cc1`, the z-score is 0.111.

On to `CCC(Sc1nc2ccsc2c(=O)n1-c1ccc(Cl)c(C)c1)C(=O)NCc1ccco1` (centres undefined), for which the z-score was -0.35.

As for `CCOc1cc(N2CCOCC2)c(OCC)cc1NC(=O)COc1ncnc2ccccc12`, the z-score is -0.374.

Take `O=C(NCCc1c[nH]c2ccccc12)/C(=C\c1ccco1)NC(=O)c1ccco1`: the z-score was -0.11.

Compound `COc1ccc(NC(=O)C2CCC(N3C(=O)C4C5C=CC(C5)C4C3=O)CC2)cc1` (centres undefined) registered a z-score of 0.0102.

Compound `CCC(Sc1nc(C)cc(C)n1)C(=O)Nc1ccc(Cl)cn1` (centres undefined) returned a z-score of -1.23.

In turn, `CCN(CC)C(=O)c1ccc2c3c(cccc13)C(=O)N(CCc1ccc(OC)c(OC)c1)C2=O` had a z-score of -0.143.

In turn, `COc1ccc(OC(=O)c2cccc(S(=O)(=O)N3CCCC3)c2)cc1` came in with a z-score of -0.172.

In turn, `Cc1ccc(C)c(S(=O)(=O)N/N=C/c2ccc(C(=O)O)cc2)c1` showed a z-score of -0.168.

For the compound `CCN(CC)C(=O)CSc1nc2c(sc(=S)n2Cc2ccco2)c(=O)n1-c1ccccc1`, the z-score is -0.527.

`CCOC(=O)c1oc2ccc(OC)cc2c1NC(=O)CN1CCN(C)CC1` yielded a z-score of 0.148.

`COc1ccccc1OCCOCCOc1c(C)cc(C)cc1Br` registered a z-score of 0.255.

For `O=C(CS(=O)c1cccc(C(F)(F)F)c1)Nc1ccccc1Cl` (centres undefined), the z-score turned out to be 0.0123.

With `O=c1c2c(nc3n1CCCCC3)-c1ccccc1CC21CCCC1`, the z-score is -0.184.

In turn, `COc1ccc(-c2nnc(SCC(=O)N3CCOCC3)o2)cc1` returned a z-score of -0.0577.

Regarding `CCOC(=O)N1CCN(C(=O)c2ccc(NC(=O)c3ccc(C)cc3)cc2)CC1`, the z-score is -2.07.

The compound `COC(=O)CSc1cnc2ccccc2n1` registered a z-score of 0.141.

As for `O=C(NCc1cccnc1)C1c2ccccc2C(=O)N1C1CCCCCCC1` (centres undefined), the z-score is -0.357.

In turn, `Cc1oc(C(C)(C)C)cc1C(=O)Nc1cccc(/C=C/C(=O)O)c1` gave a z-score of -0.189.

Take `COc1cc(C2Nc3cc(Cl)c(S(N)(=O)=O)cc3S(=O)(=O)N2)ccc1OCc1ccccc1` (centres undefined): the z-score was -0.444.

In the case of `COc1ccccc1-c1nnc(NC(=O)c2cccc(N3C(=O)CCC3=O)c2)o1`, the z-score is -0.631.

As to `COc1ccccc1NC(=O)c1cc(Cl)ccc1NC(=O)c1ccco1`, the z-score was determined as 0.52.

The compound `CC(=O)NC(C)c1ccc(Cl)c(Cl)c1` (centres undefined) came in with a z-score of -0.488.

`COc1ccc(C(=O)Nn2c(SCC(=O)NCc3ccccc3)nc3ccccc3c2=O)cc1` showed a z-score of 0.0525.

On to `O=C(/C(=N\Nc1ccccc1)Sc1nnnn1-c1ccccc1)c1ccccc1`, for which the z-score was determined as 1.31.

Turning to `COc1cc(NC(=O)Cc2ccccc2OC)cc(OC)c1`, the z-score is -0.103.

`Cc1ccc(NC(=O)CN(C)C(=O)CCC(=O)c2cccs2)cc1` displayed a z-score of -0.496.

For the compound `COc1ccc(NC(=O)N2CCC(O)(c3cccnc3)CC2)c(OC)c1`, the z-score was 0.26.

`Nc1ccc2c(c1)N1CCN=C1S2` had a z-score of -0.306.

Compound `Cc1ccnc(N2CCC(C(=O)NNC(=O)c3ccccc3)CC2)n1` registered a z-score of -0.22.

The compound `CCS(=O)(=O)c1ccc(-c2csc(-c3ccccc3Cl)n2)c(Cl)c1Cl` displayed a z-score of 0.0426.

`C=CCNc1nc(C)c(C(C)=O)cc1C#N`: the z-score is 0.251.

With `CSc1cnc2c(=O)n(C)c(=O)[nH]c2n1`, the z-score came out at 1.28.

Consider `Cc1nnc(SCC(=O)N2CCCCC2)n1CC1CCCO1` (centres undefined), for which the z-score was -0.112.

Turning to `COCCCn1c(SCc2nnc(-c3ccc(OC)c(OC)c3)o2)nnc1-c1ccncc1`, the z-score stood at 0.348.

Consider `CCOC(=O)c1nnn(-c2nonc2-n2cccc2)c1CN1CCOCC1`, for which the z-score was -0.0612.

The compound `O=C(CSc1nnc(-c2ccc(Cl)cc2)n1Cc1ccco1)NCc1ccc2c(c1)OCO2` had a z-score of -0.262.

Compound `N#CCSc1nc2c(c(C3CC=CCC3)c1C#N)CCC2` (centres undefined) showed a z-score of -0.591.

In the case of `Cc1cc(NC(=O)CSc2nnc(C3CC3)n2C)no1`, the z-score is 0.713.

In turn, `O=C(NCc1cccnc1)c1cccc(Cl)c1` displayed a z-score of 0.278.

The compound `Cc1cc(C)n(-c2ccc3cccc(NS(C)(=O)=O)c3n2)n1` registered a z-score of -0.35.

`Oc1c(Cl)cc(Cl)cc1/C=N/c1nccs1` displayed a z-score of -0.379.

Compound `Cc1sc(NC(=O)C2CCCCC2)c(C#N)c1-c1ccccc1` had a z-score of 0.0405.

On to `Cc1sc2ncn(CC(=O)NCC(=O)N(C)C3CCCCC3)c(=O)c2c1C`, for which the z-score is -0.0929.

With `Cc1ccc(N2CCN(S(=O)(=O)N3CCCCC3)CC2)cc1Cl`, the z-score was -0.926.

On to `Cc1ccc2[nH]c(=O)c(C(c3nnnn3C(C)(C)C)N3CCN(C(=O)c4ccco4)CC3)cc2c1` (centres undefined), for which the z-score is -0.0115.

`N#CC(=C1CCCC1)c1nc(-c2ccc(Cl)cc2)cs1` showed a z-score of 0.112.

The compound `O=C(Nc1cccc(S(=O)(=O)N2CCOCC2)c1)c1cn(-c2ccccc2)nc1-c1ccccc1` yielded a z-score of 0.027.

As for `CCN(CC)CC(=O)Nc1nn(-c2ccccc2)nc1C(N)=O`, the z-score is -0.412.

As to `COc1ccc(CC(=O)Nc2nc(-c3cccnc3)cs2)cc1`, the z-score is -0.198.

With `CCOc1ccc(N2C(=O)CSC2c2ccncc2)cc1` (centres undefined), the z-score was -0.186.

With `CN1N=C(C(=O)N2CCN(c3ccc([N+](=O)[O-])cc3)CC2)CCC1=O`, the z-score was -0.226.

Compound `COc1ccc(N(C)S(=O)(=O)c2cccc(C(=O)OCC(=O)Nc3sc4c(c3C#N)CCCCC4)c2)cc1` came in with a z-score of 0.379.

As to `CN(CCC(=O)Nc1ccc2c(c1)OCO2)Cc1ccccc1`, the z-score worked out at 0.462.

`COc1ccc(NC(=O)CSc2n[nH]c(N)n2)c([N+](=O)[O-])c1` yielded a z-score of -0.122.

`Cc1nc2ccc(S(=O)(=O)NC(C(=O)N3CCCC3)C(C)C)cc2s1` (centres undefined) displayed a z-score of -0.206.

Take `CC1Cc2cc(/C(O)=C3/C(=O)C(=O)N(CCCn4ccnc4)C3c3ccco3)ccc2O1` (centres undefined): the z-score was -0.193.

`Cc1c(C(=O)O)cccc1N1C(=O)Nc2ccccc2N1O` came in with a z-score of -0.0138.

Regarding `CCCCn1c(=NC(=O)c2cccnc2)c(C#N)cc2c(=O)n3cccc(C)c3nc21`, the z-score is -0.0906.

With `Cc1ccc(NC(=O)COS(=O)c2ccc(C)cc2)cc1` (centres undefined), the z-score turned out to be 0.165.

Turning to `CCOC(=O)N1CCC(NC(=O)Cn2ncc3c4ccccc4n(C)c3c2=O)CC1`, the z-score was determined as 0.0522.

Take `O=C(COC(=O)/C=C/c1cccs1)Nc1nc(-c2ccccc2)cs1`: the z-score was -0.207.

In the case of `Cc1cc(C)nc(NC(=O)CSc2nc3ccccc3s2)n1`, the z-score is -0.346.

`COc1cc(C2C(C#N)=C(N)N(c3cccnc3)C3=C2C(=O)CC(C)(C)C3)ccc1O` (centres undefined) came in with a z-score of 0.483.

Regarding `CCOC(=O)C1C(=O)OC(C)(C)C1C(C)C(=O)c1ccc(C)cc1` (centres undefined), the z-score came to 0.545.

`COc1ccccc1CNC(=O)C1CC(c2cccc([N+](=O)[O-])c2)=NO1` (centres undefined) had a z-score of -0.0624.

Regarding `COc1ccc(NC(=O)CN2CCC(C(N)=O)(N3CCCCC3)CC2)cc1`, the z-score was -0.0237.

With `COC(=O)C(NC(=O)c1ccccc1)=C1C=C(C)OC(C)=C1`, the z-score worked out at 0.418.

For `CC1(C)CC(=O)/C(=C(/O)Cc2ccccc2)C(=NCCc2ccccc2)C1`, the z-score is -0.788.

In turn, `Cn1c(SCC(=O)N(C2CCCCC2)C2CCCCC2)nnc1-c1cccs1` yielded a z-score of -0.304.

In the case of `CC(=O)N1CCN(Cc2nc3cc(NC(=O)Cn4nc(C)c5ccccc5c4=O)ccc3n2C)CC1`, the z-score was -0.472.

In the case of `COc1ccccc1NC(=O)C1CCCN(S(=O)(=O)c2cnc[nH]2)C1` (centres undefined), the z-score came out at 0.0203.

In turn, `CCN1CCN(Cc2cccc(Oc3ccccc3)c2)CC1` showed a z-score of 0.156.

In the case of `COc1cccc(OCCCCCCN2CCOCC2)c1`, the z-score was -0.447.

In the case of `CCOC(=O)CSc1nc2ccccc2c(=O)n1CC1CCCC1`, the z-score is 0.0494.

On to `CSCCC(NC(=O)c1cccc(S(=O)(=O)N2CCOCC2)c1)C(=O)Nc1cccc(C)c1` (centres undefined), for which the z-score was -0.00152.

On to `Cc1ccc(C(=O)N2CCc3ccccc32)cc1`, for which the z-score was determined as 0.0934.

Regarding `Cc1cc(=O)[nH]c(SCC(=O)N2CCN(C(c3ccccc3)c3ccccc3)CC2)n1`, the z-score was -0.0424.

For the compound `Cc1cccc(OCC(=O)Nc2ccc(S(=O)(=O)N3CCN(C)CC3)cc2)c1`, the z-score worked out at 0.101.

For the compound `CCNCc1cc(Br)c(OCC(=O)Nc2ccccc2)c(OC)c1`, the z-score stood at 1.18.

In turn, `CCC(=C(c1ccc(OC)cc1)c1ccc(OC)cc1)c1cn(CC(O)CN2CCN(C)CC2)c2ccccc12` (centres undefined) registered a z-score of 2.63.

Compound `CCn1cc(C(=O)Nc2ccc(OC)c(S(=O)(=O)N3CCCCC3)c2)c(=O)c2ccc(C)nc21` returned a z-score of 0.769.

With `N#Cc1cc2c(nc1SC1CCCCC1O)CCCC2` (centres undefined), the z-score was -1.1.

The compound `COc1ccccc1C(=O)Nc1ccc(C(=O)O)cc1` gave a z-score of 0.328.

The compound `C=CCOc1ccc(C(=O)N(Cc2ccc(N(C)C)cc2)C2CCS(=O)(=O)C2)cc1` (centres undefined) yielded a z-score of -0.168.

Regarding `O=c1c2c(-c3ccc(Cl)cc3)csc2nc2n1CCC2`, the z-score is -0.149.

For `O=C(N/N=C/c1cc2cc3c(cc2nc1Cl)OCCO3)c1ccccc1O`, the z-score was -0.293.

Take `CCN(CC)S(=O)(=O)c1ccc(NC(=O)CN(c2cccc(C)c2)S(C)(=O)=O)cc1`: the z-score is -0.189.

On to `N#C/C(=C(/O)COC(=O)COc1ccc(Cl)cc1)c1nc2ccccc2[nH]1`, for which the z-score stood at 0.27.

With `O=S(=O)(Nc1nc2ccccc2nc1Cl)c1ccc(Cl)cc1`, the z-score was -0.163.

As to `O=c1cc(-c2ccco2)nc(-c2cccs2)o1`, the z-score is -1.05.

Regarding `O=C(Nc1cccc(-c2nc3cccnc3s2)c1)c1ccco1`, the z-score is -0.395.

Compound `CCOC(=O)c1nnn(CC(=O)Nc2cccc(F)c2)c1C(=O)OCC` gave a z-score of 0.299.

As to `CCOC(=O)C1=C(O)/C(=C/N(C)C)N=C1C`, the z-score is -0.937.

`COc1ccc(CC(=O)N(c2ccccc2)c2nc(C)cs2)cc1` yielded a z-score of -0.721.

`COc1nnc(-c2ccc(N3CCOCC3)c(NC(=O)C3CCCCC3)c2)c2ccccc12`: the z-score is -0.35.

The compound `CCCNC(=O)N1CCC(C(=O)c2ccc(F)cc2)CC1` registered a z-score of 0.695.
